Our source for the activity change, negative = inhibition values is PubChem BioAssay AID1745853 (National Center for Advancing Translational Sciences (NCATS), 2022).

Common to all, as to test: Primary Screen for Target Class Profiling of Small Molecule Inhibitors of Methyltransferases
Test [1] concerns the target Glycine N-methyltransferase (Homo sapiens) (UniProt Q14749). To be noted: purified enzyme, MTase-Glo SAH luminescence; measured here: GNMT inhibition; at 40 µM; stronger effect = lower value. A digest of the protocol: (§1)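 Each enzyme was reacted with SAM and its substrate, with compounds tested once at 40 uM; SAH formed was read by MTase-Glo luminescence.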
Test [2] deals with Guanidinoacetate N-methyltransferase (Homo sapiens) (UniProt Q14353). Particulars: purified enzyme, MTase-Glo SAH luminescence; measured here: GAMT inhibition; at 40 µM; stronger effect = lower value. A digest of the protocol: as §1
Test [3] addresses Histamine N-methyltransferase (Homo sapiens) (UniProt P50135). To be noted: purified enzyme, MTase-Glo SAH luminescence; measured here: HNMT inhibition; at 40 µM; stronger effect = lower value. In short, it runs like this:
as §1

In test [4] the target is Nicotinamide N-methyltransferase (Homo sapiens) (UniProt P40261). Particulars: purified enzyme, MTase-Glo SAH luminescence; measured here: NNMT inhibition; at 40 µM; stronger effect = lower value. In short, it runs like this:
as §1

Test [5] concerns the target Phenylethanolamine N-methyltransferase (Homo sapiens) (UniProt P11086). Particulars: purified enzyme, MTase-Glo SAH luminescence; measured here: PNMT inhibition; at 40 µM; stronger effect = lower value. A digest of the protocol:
as §1

Molecules are shown by their SMILES. The list shows a part of the results. Shown are side measurements of this screen, not its main read-out; they come without a call.
% is set by controls: 0 for no effect and ±100 for the full control effect.

With `Clc1ccc(C2Nc3ccc4ccccc4c3C3C=CCC32)cc1` (stereo not drawn), the activity change, negative = inhibition in test [1] is 3.32%; in test [2] it was -0.394%; in test [3], 0.272%; in test [4], -10.7%; in test [5], -6.57%.

`COc1cc2c(=O)[nH]c3c(C(=O)NCc4ccc5c(c4)OCO5)sc(=S)n3c2cc1OC`: the activity change, negative = inhibition was 1.49% in test [1]; 0% in test [2]; 1.42% in test [3]; 3.45% in test [4]; 0.507% in test [5].

For `CC1(C)CC[C@]2(C(=O)O)CC[C@]3(C)C(=CCC4[C@@]5(C)C[C@@H](O)[C@H](O)[C@](C)(CO)C5CC[C@]43C)[C@@H]2[C@@H]1O` (stereo partly drawn), the activity change, negative = inhibition in test [1] is -4.46%; in test [2], -6.53%; in test [3], -0.04%; in test [4] it was -16.6%; in test [5], -13.9%.

Turning to `COc1ccc(OC)c(S(=O)(=O)Nc2nc3c(s2)C[C@]2(C)CC[C@@H]4[C@H](OC(=O)[C@H]4C)[C@H]2[C@@H]3C)c1`, the activity change, negative = inhibition was -10.6% in test [1]; -2.05% in test [2]; -2.12% in test [3]; -5.49% in test [4]; -1.98% in test [5].

In the case of `Cc1noc(C)c1-c1cn(C)c(=O)n2cc(COc3ccc(Cl)cc3)nc12`, the activity change, negative = inhibition in test [1] was -4.05%; in test [2], -4.78%; in test [3] it was -2.81%; in test [4], -9.18%; in test [5], 1.77%.

With `CCOC(=O)c1cc2n(n1)CC(C)(C(=O)NCc1ccccc1)N(c1cc(C)cc(C)c1)C2=O` (stereo not drawn), the activity change, negative = inhibition in test [1] was 0.991%; in test [2], 0%; in test [3], 1.62%; in test [4], 0.102%; in test [5], -1.8%.

As for `CC(C)CCn1c(=O)c2ccc(C(=O)NC(C)C)cc2n2c(=O)n(CC(=O)c3ccccc3)nc12`, the activity change, negative = inhibition is 1.63% in test [1]; 1.26% in test [2]; -1.18% in test [3]; -5.94% in test [4]; -1.92% in test [5].

Turning to `COc1cc(CNC(=O)CCCCCCC(C)C)ccc1O`, the activity change, negative = inhibition in test [1] is -15.8%; in test [2] it was 1.26%; in test [3], -0.994%; in test [4], -13.4%; in test [5], 0.762%.

As to `Cc1cc2[nH]c(=O)[nH]c2cc1S(=O)(=O)N1CCN(C2CCCCC2)CC1`, the activity change, negative = inhibition in test [1] was -0.262%; in test [2], 3.56%; in test [3] it was -22.9%; in test [4] it was -11.2%; in test [5], -9.43%.

Take `CCNC(=O)Nc1ncc(-c2cc(-c3c(C)cc(OC)cc3C)nc(-c3cnccn3)n2)s1`: the activity change, negative = inhibition in test [1] is 0.499%; in test [2], -0.808%; in test [3], 3.97%; in test [4] it was -16.2%; in test [5], -6.78%.

On to `CS(=O)(=O)N(Cc1ccccn1)C1CN(C(=O)Cn2c(=O)oc3ccccc32)C1`, for which the activity change, negative = inhibition in test [1] was found to be 5.41%; in test [2], 2.96%; in test [3] it was 1.22%; in test [4], 2.08%; in test [5] it was 1.1%.

As to `COc1cccc(CNC(=O)Cn2c(=O)oc3cc(S(=O)(=O)N4CC(C)CC(C)C4)ccc32)c1` (stereo not drawn), the activity change, negative = inhibition in test [1] is 0.133%; in test [2], 3.26%; in test [3] it was -6.8%; in test [4] it was -3.18%; in test [5], -4.98%.

Turning to `Cc1cccc(Cn2nc3n(CCCOC(C)C)c(=O)c4ccccc4n3c2=O)c1`, the activity change, negative = inhibition in test [1] was -0.578%; in test [2] it was 0%; in test [3], 11.8%; in test [4] it was -3.54%; in test [5], 2.51%.

As to `N#CC[C@H](C1CCCC1)n1cc(-c2ncnc3[nH]ccc23)cn1`, the results for the activity change, negative = inhibition in test [2], in test [4] and in test [5] were -0.415%, -36.4% and -7.42%, respectively.

As to `CC(=O)O[C@@H]1C2=C(O)C(=O)[C@](C)(OC(C)=O)C(=O)C2=CO[C@@]12O[C@@H](C)CC[C@H]2OC(C)=O`, the activity change, negative = inhibition in test [1] was -2.24%; in test [2], 1.02%; in test [3], 6.62%; in test [4] it was -13.5%; in test [5], -11.6%.

For the molecule `Cc1ccc(Nc2ccn3c(=O)n(CC(=O)Nc4cc(F)ccc4F)nc3n2)cc1`, the activity change, negative = inhibition in test [1] is 7.07%; in test [2] it was 0%; in test [3] it was 2.73%; in test [4], -3%; in test [5] it was 1.58%.

For the molecule `CCNC(=O)N1CCCCCC1CN1CCC(C)CC1` (stereo not drawn), the activity change, negative = inhibition in test [1] is -2.18%; in test [2], -1.64%; in test [3], 1.22%; in test [4] it was -2.35%; in test [5], -3.84%.

For `CCCn1c(=O)c2ccc(C(=O)NC3CCCCC3)cc2n2c(SCC(=O)NC3CCCC3)nnc12`, the activity change, negative = inhibition in test [1] was found to be 5.28%; in test [2], 0.157%; in test [3] it was 8.3%; in test [4], 7.18%; in test [5], 4.55%.

As to `Cc1sc2ncn(CC(=O)NCc3ccc4c(c3)OCO4)c(=O)c2c1S(=O)(=O)N1CCC(C)CC1`, the activity change, negative = inhibition is -3.58% in test [1]; -0.842% in test [2]; -8.82% in test [3]; -3.37% in test [4]; -13.6% in test [5].

Regarding `COC1=CC(=O)O/C1=C(/OC)[C@@H]1O[C@H]1c1ccccc1`, the activity change, negative = inhibition is -17.8% in test [1]; 2.85% in test [2]; 6.26% in test [3]; -10% in test [4]; 2.79% in test [5].

As for `CC(O)CN1CC2(CCC1=O)CCN(CCCn1ccnc1)CC2` (stereo not drawn), the activity change, negative = inhibition in test [1] was 0.34%; in test [2] it was 5.74%; in test [3] it was -0.257%; in test [4], -0.871%; in test [5] it was -1.69%.

In the case of `C[C@H](c1ccccc1)N1C(=O)[C@@H]2CN(C(=O)CC(C)(C)C)CCN2C1=O`, the activity change, negative = inhibition in test [1] is -0.194%; in test [2] it was 3.9%; in test [3], 2.17%; in test [4], 1.62%; in test [5], 8.35%.

With `CC(C)NC(=O)O[C@@H]1CC[C@]2(C)C(CC[C@@H](O)[C@H]2CC(=O)NCc2ccco2)[C@]1(C)CO` (stereo partly drawn), the activity change, negative = inhibition in test [1] was -5.06%; in test [2], -0.306%; in test [3], -0.024%; in test [4] it was -2.39%; in test [5], 2.5%.

Regarding `CC1CCC(NC(=O)CCn2ccc3cc(S(=O)(=O)N4CCCC4)ccc32)CC1` (stereo not drawn), the activity change, negative = inhibition in test [1] came out at 3%; in test [2], 5.49%; in test [3] it was 2.28%; in test [4], 1.4%; in test [5], 2.49%.

Take `COC(=O)c1ncn2c1C(=O)N(Cc1ccc(OC)c(OC)c1)C(C)(C(=O)NC1CCCC1)C2` (stereo not drawn): the activity change, negative = inhibition in test [1] was -3.19%; in test [2], -2.09%; in test [3], -1.02%; in test [4] it was -2.56%; in test [5], -2.42%.

Turning to `O=C(C1CC1)N1CCC2(CC1)NC(=O)N(c1cccc(Cl)c1)N2`, the activity change, negative = inhibition in test [1] was -4.88%; in test [2], -6.55%; in test [3] it was 0.081%; in test [4], -7.03%; in test [5] it was -4.03%.

`N=c1nc(N2CCCCC2)cc(N)n1O`: the activity change, negative = inhibition in test [1] was -3.46%; in test [2], 2.17%; in test [3], -22.6%; in test [4], -5.03%; in test [5] it was 5.17%.

Turning to `O=C(CCc1nnc2n(Cc3ccc(F)cc3)c(=O)c3ccccc3n12)NC1CC1`, the activity change, negative = inhibition in test [1] was -15.1%; in test [2] it was 0%; in test [3], 6.95%; in test [4] it was 7.97%; in test [5] it was 1.01%.

On to `O=C(C[C@H]1NC(=O)c2ccccc2NC1=O)Nc1ccc(N2CCCS2(=O)=O)cc1`, for which the activity change, negative = inhibition in test [1] was -3.49%; in test [2] it was -10.5%; in test [3], -0.276%; in test [4], -8.55%; in test [5] it was 1.62%.
